Consider one molecule from the supplement of paper PMC8728848.

Common to all, as to test: glycan array binding signal (z-score within array); higher = stronger binding
Common to all, as to details: glycan notation: IUPAC condensed, linker removed

One experiment deals with GlcNAc(b1-3)Man. In short, it runs like this:
(§1)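 The binding signal is a Z-score computed within each array and averaged over linkers. Arrays of the same protein sequence at different concentrations or buffers were also averaged together. Data originate from 3228 arrays in the Consortium for Functional Glycomics database, kept only where the protein sequence was available.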

The target of experiment [1] is GlcNAc(b1-3)[GlcNAc(b1-4)][GlcNAc(b1-6)]GlcNAc. In short, it runs like this: as §1
Experiment [2] concerns the target GlcNAc(b1-3)[GlcNAc(b1-6)]Gal(b1-4)GlcNAc. Summed up:
as §1

The target of experiment [3] is GlcNAc(b1-3)[GlcNAc(b1-6)]GalNAc. Summed up:
as §1

Experiment [4] has as its target GlcNAc(b1-4)Gal(b1-4)GlcNAc. In short, it runs like this:
as §1

The target in a further experiment is GlcNAc(b1-4)GlcNAc. Summed up: as §1
For experiment [5], the target named is GlcNAc(b1-4)GlcNAc(b1-4)GlcNAc. In short, it runs like this:
as §1

Experiment [6] concerns the target GlcNAc(b1-4)GlcNAc(b1-4)GlcNAc(b1-4)GlcNAc(b1-4)GlcNAc. In short, it runs like this: as §1
Experiment [7] has as its target GlcNAc(b1-4)GlcNAc(b1-4)GlcNAc(b1-4)GlcNAc(b1-4)GlcNAc(b1-4)GlcNAc. Summed up: as §1
Experiment [8] deals with GlcNAc(b1-4)[GlcNAc(b1-6)]GalNAc. In short, it runs like this:
as §1

In experiment [9] the target is GlcNAc(b1-6)Gal(b1-4)GlcNAc. Summed up: as §1
Another experiment addresses GlcNAc(b1-6)GalNAc. In short, it runs like this: as §1
For the next experiment, the target named is GlcNAc3Prop(b1-4)GlcNAc. Summed up: as §1
The target of experiment [10] is GlcNAc6S(b1-3)Gal(b1-4)GlcNAc. In short, it runs like this:
as §1

A further experiment addresses Kdn(a2-3)Gal(b1-3)GalNAc. Summed up:
as §1

Another experiment addresses Kdn(a2-3)Gal(b1-3)GlcNAc. In short, it runs like this:
as §1

The target in another experiment is Kdn(a2-3)Gal(b1-4)Glc. Summed up: as §1
The target in another experiment is Kdn(a2-3)Gal(b1-4)GlcNAc. In short, it runs like this: as §1
For experiment [11], the target named is Kdn(a2-3)Gal(b1-4)[Fuc(a1-3)]GlcNAc. Summed up: as §1
In another experiment the target is Kdn(a2-6)Gal(b1-4)GlcNAc. In short, it runs like this: as §1
Experiment [12] has as its target Man(a1-2)Man(a1-2)Man(a1-3)Man. In short, it runs like this: as §1
Experiment [13] has as its target Man(a1-2)Man(a1-2)Man(a1-6)[Man(a1-3)]Man. Summed up:
as §1

The target in a further experiment is Man(a1-2)Man(a1-3)Man. In short, it runs like this: as §1

The list shows a part of the results.

B1: rCNL (Clitocybe nebularis), B2ZRS9 (protein)
chain: SITPGTYNITNVAYTNRLIDLTGSNPAENTLIIGHHLNKTPSGYGNQQWTLVQLPHTTIYTMQAVNPQSYVRVRDDNLVDGAALVGSQQPTPVSIESAGNSGQFRIKIPNLGLALTLPSDANSTPIVLGEVDETSTNQLWAFESVSAV
With B1, the “glycan array binding signal (z-score)” value with GlcNAc(b1-3)Man is -0.301; in experiment [1] it was -0.294; in experiment [2] it was -0.053; in experiment [3], -0.021; in [4], -0.297; in the experiment with GlcNAc(b1-4)GlcNAc, -0.304. The “glycan array binding signal (z-score)” value is -0.302 in experiment [5]; -0.302 in experiment [6]; -0.303 in experiment [7]; -0.301 in experiment [8]; -0.299 in experiment [9]; -0.237 with GlcNAc(b1-6)GalNAc. For the same molecule, the “glycan array binding signal (z-score)” value was -0.367 with GlcNAc3Prop(b1-4)GlcNAc; -0.273 in [10]; -0.289 with Kdn(a2-3)Gal(b1-3)GalNAc; -0.296 with Kdn(a2-3)Gal(b1-3)GlcNAc; -0.301 with Kdn(a2-3)Gal(b1-4)Glc; -0.296 with Kdn(a2-3)Gal(b1-4)GlcNAc. Further, the “glycan array binding signal (z-score)” value in experiment [11] was -0.278; with Kdn(a2-6)Gal(b1-4)GlcNAc, -0.285; in experiment [12], -0.306; in experiment [13], -0.293; in the experiment with Man(a1-2)Man(a1-3)Man, -0.309.
